According to PubChem BioAssay AID651820 (National Center for Advancing Translational Sciences (NCATS), 2012):
Values joined by “and” are separate entries in the source; they are usually repeats but may differ in a detail not shown here. Equal entries are not always repeated. Screen size: about 340,000 compounds; about 12,000 (3.5%) were called active. Inconclusive means that the source gave no clear call. Such entries were picked first, then a sample of the others. Calls follow the shape of the dose curve; as a rule, active = well fitted inhibition curve with a large enough effect; inconclusive = small, poorly fitted or top-dose-only effect, or another doubt; inactive = no such curve, though single readings can be large or run the other way. Potencies of inconclusive entries are doubtful fits and often do not repeat.

Assay: qHTS Assay for Inhibitors of Hepatitis C Virus (HCV)
Conditions: Huh7.5.1 HCVcc-Cre (HCVcc is cell-culture hepatitis C virus) infection, luciferase reporter, 44 h; series mostly up to 41.8 µM
In short: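 Reporter virus HCVcc-Cre (~0.5 moi) infects cells exposed to compound; seeding density 1,000 cells/well with 4 h settling beforehand. Luminescence, 15 sec read, taken 44 h post-infection following a 15 min RT substrate incubation.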
Potency is read from the fitted curve at half-maximal effect; tags tell the direction and shape of the fitted curve.

Structure (SMILES) | Potency
COc1ccc(NS(=O)(=O)c2ccc(N3CCOCC3)c(NC(=O)c3ccco3)c2)cc1 | inactive
COc1ccc(C(=O)O/N=C(\N)c2ccccn2)c(OC)c1 | inconclusive: 31.6 µM [inhibitor, single point]
COc1ccc(C)cc1NC(=O)C1CCCN(S(=O)(=O)c2cccs2)C1 (stereo not drawn) | inconclusive: 14.1 µM [inhibitor, single point]
COc1ccc(-c2nc3c(C(=O)NCCN(C)C)cccc3c3ccccc23)cc1 | inconclusive: 11.2 µM [inhibitor, single point]
O=S(=O)(c1cccs1)N1CCN(S(=O)(=O)c2cccs2)CC1 | inactive
CO/N=C/c1c(-c2ccc(Cl)cc2)nc2cc(C)ccn12 | inconclusive: 22.4 µM [inhibitor, single point]
O=S(=O)(NC1CCCCC1N1CCN(c2ccc(F)cc2)CC1)c1ccccc1 (stereo not drawn) | inconclusive: 31.6 µM [inhibitor, single point]
CN(C)CCC(O)(c1ccccc1)c1ccccc1Cl (stereo not drawn) | inactive
COc1ccc(-c2cn(Cc3ccc(C)cc3)nn2)cc1 | inactive
CCOC(=O)N1CCN(C(=O)c2cc(C)no2)CC1 | inactive
CCN1C(=O)N[C@@H](CCc2ccccc2)C(C(C)=O)=C1C | inconclusive: 11.2 µM [inhibitor, single point]
CCOc1cc(S(=O)(=O)N2CCCCC2)ccc1F | inactive
CCN(CC(=O)Nc1cc(Cl)ccc1C)C(=O)c1ccc2c(c1)NC(=O)C(C)S2 (stereo not drawn) | inconclusive: 2.51 µM [inhibitor, partial curve]
CCc1ccc(C(=O)NNc2ccc(F)cc2F)cc1 | inconclusive: 6.31 µM [inhibitor, partial curve]
CCOC(=O)c1sc2cccc(Cl)c2c1N | inactive
CN(C)S(=O)(=O)N1CCC(Oc2ccc(C(=O)NCc3cnn(C)c3)cc2)CC1 | inconclusive: 31.6 µM [inhibitor, single point]
Cn1ccnc1C(O)c1ccco1 (stereo not drawn) | inconclusive: 0.501 µM [inhibitor, partial curve, poor fit]
Cc1ccc(O)c(C2=Nc3ccccc3C2(C)C)c1 | inconclusive: 10 µM [inhibitor, partial curve]
CCOc1ccc(NC(=O)N2CCC(n3c(=O)[nH]c4ccccc43)CC2)cc1 | inconclusive: 7.94 µM [inhibitor, partial curve]
O=C(CSc1ccccc1)NCc1ccc(F)cc1 | inactive
CC(=O)OCCn1c2nc(=O)[nH]c(=O)c-2nc2cc(C)c(C)cc21 | inconclusive: 12.6 µM [inhibitor, single point]
Nc1cc(OC(=O)c2cccs2)nn1S(=O)(=O)c1ccccc1 | inactive
Cc1ccn2c(NCc3ccccc3)c(-c3cccc(SC4CCCCC4)c3)nc2c1 | inconclusive: 8.91 µM [inhibitor, partial curve, poor fit]
Cc1ccc(C)c(-c2nnc(NC(=O)Cc3ccc(F)cc3)o2)c1 | inconclusive: 22.4 µM [inhibitor, single point]
CCn1c(-c2cc(-c3cc(C)ccc3C)nc3ccccc23)n[nH]c1=S | inactive

Structure (SMILES) | Potency
CC(C)S(=O)(=O)C/C(N)=N/OC(=O)c1cc(Cl)cc(Cl)c1 | inactive
CCOc1ccc(C2=CS/C(=C(\C#N)c3nnc4n3CCCCC4)N2CC)cc1 | inconclusive: 31.6 µM [inhibitor, single point] and inconclusive: 8.91 µM [inhibitor, partial curve]
CN(C)S(=O)(=O)Oc1ccc(Cl)cc1C(=O)Nc1cccc(C(F)(F)F)c1 | active: 11.2 µM
COc1ccccc1-c1nnc(NC(=O)c2ccc(S(=O)(=O)N(C)C)cc2)o1 | inactive
Cc1cc(C(=O)O)ccc1-c1ccc(CO)o1 | inactive
COc1ccc(C(=O)O)cc1S(=O)(=O)NCc1ccncc1 | inconclusive: 0.501 µM [inhibitor, full curve, poor fit]
COC(=O)c1ccc(N2CCN(S(=O)(=O)c3ccc(Br)cc3)CC2)c([N+](=O)[O-])c1 | inconclusive: 31.6 µM [inhibitor, single point]
O=C(c1ccc(F)cc1)n1ccc(-c2cnc(-c3ccccc3)s2)n1 | inactive
O=C(C[n+]1ccccc1)N/N=C/c1cccs1 | inactive
COc1ccccc1NC(=O)COc1ccc(Br)cc1CNCCCN1CCOCC1 | inconclusive: 12.6 µM [inhibitor, single point]
CCCNC(=O)c1onc(CSc2ccc(F)cc2)c1C(=O)NCC1CC1 | inconclusive: 2.51 µM [inhibitor, full curve]
O=C(NC1CCCCC1)N1CCN(C(c2ccccc2)c2ccccc2)CC1 | inconclusive: 31.6 µM [inhibitor, single point]
N=c1scc(-c2ccccc2)n1/N=C/c1ccco1 | inconclusive: 5.62 µM [inhibitor, full curve]
CCCc1nc2nc(C)c(NS(=O)(=O)c3ccc(CC(C)C)cc3)c(=O)n2[nH]1 | inactive
Cc1cc(C(C)(C)C)oc1C(=O)N(CC(=O)NC1CCCC1)c1c(C)cccc1C | active: 10 µM
Nc1ccn(Cc2cccc(F)c2)n1 | inactive
CCC(CO)Oc1cc(NCc2ccc(C(F)(F)F)cc2)c2ncn(C(C)C)c2c1 (stereo not drawn) | active: 11.2 µM
CC(C)(C)c1cc(C(=O)NN)n(Cc2ccc(F)cc2)n1 | inconclusive: 31.6 µM [inhibitor, single point]
Cc1onc(-c2c(Cl)cccc2Cl)c1C(=O)N1C(C)CCCC1C (stereo not drawn) | inactive
Cc1ccc(C)c(Cn2nnc3c(=O)[nH]c(C4CCCN(C(=O)c5cccs5)C4)nc32)c1 (stereo not drawn) | inactive
N#CCCN1CCN(Cc2cc(-c3ccccc3)ccc2O)CC1 | inconclusive: 31.6 µM [inhibitor, single point]
c1ccc(-c2csc(Nc3cccnc3)n2)cc1 | inconclusive: 3.16 µM [inhibitor, full curve]
CCOC(=O)C(=O)NC1CCSC1=O (stereo not drawn) | inconclusive: 3.16 µM [inhibitor, partial curve]
O=C(CCOc1ccccc1)Nc1ccc(Cl)c(S(=O)(=O)N2CCOCC2)c1 | inconclusive: 25.1 µM [inhibitor, single point]
CCOC(=O)c1ccc(NC(=O)CCOc2ccccc2)cc1 | inactive

Structure (SMILES) | Potency
O=C1C=Cc2cccc3ccc(O)c1c23 | inconclusive: 14.1 µM [inhibitor, single point]
Oc1ccccc1-c1n[nH]c(-c2ccccc2O)n1 | inconclusive: 3.55 µM [inhibitor, full curve]
CC(C)CCN1CCC(n2nccc2NC(=O)c2ccc3c(c2)OCO3)CC1 | inactive
Cc1sc2ncnc(N3CCC(C(=O)Nc4nc(-c5ccc(F)cc5)cs4)CC3)c2c1C | inconclusive: 7.08 µM [inhibitor, partial curve]
COC(=O)c1sc(-c2ccc(Cl)cc2)cc1N | inactive
O=C1/C(=C/c2ccc(F)cc2)SC(=S)N1CC(=O)N1CCCCC1c1cccnc1 (stereo not drawn) | inconclusive: 1.78 µM [inhibitor, partial curve]
O=C(NCc1ccc2c(c1)OCO2)c1cccc(C(=O)NCc2ccc3c(c2)OCO3)c1 | inconclusive: 0.316 µM [inhibitor, full curve, poor fit]
CCOC(=O)C1=C(CN2CCN(C(=O)OCC)CC2)NC(=O)NC1c1ccc2c(c1)OCO2 (stereo not drawn) | inconclusive: 31.6 µM [inhibitor, single point]
Cn1c(C(=O)N2COCC2(C)C)cc2c(=O)n3ccccc3nc21 | inactive
C[C@H]1COC2=C1C(=O)C(=O)c1c2ccc2c1CCCC2(C)C | inconclusive: 2.82 µM [inhibitor, full curve]
Cc1c2cnn(CC(=O)N3CCC4(CC3)OCCO4)c(=O)c2c(C)n1Cc1cccc(Cl)c1 | inactive
COc1ccc(C(CCN2CCCC(C)C2)c2c(OC)cc(OC)c3c(C)cc(=O)oc23)cc1 (stereo not drawn) | inconclusive: 11.2 µM [inhibitor, single point]
O=C(CSc1nc(Nc2ccccc2)nc(N2CCOCC2)n1)Nc1ccccc1Cl | inconclusive: 7.08 µM [inhibitor, partial curve]
CSCC(=O)N1CCCC(CNC(=O)c2ccc(-c3ccccc3)cc2)C1 (stereo not drawn) | inconclusive: 31.6 µM [inhibitor, single point]
CCSc1nc(O)c(C2OC(=O)c3c2ccc(OC)c3OC)c(=O)n1-c1ccccc1 (stereo not drawn) | inactive
Cc1ccc(NC(=O)CSc2nnnn2C2CCCC2)cc1S(=O)(=O)N1CCOCC1 | inactive
N#C/C(=C(/O)COC(=O)Cc1c[nH]c2ccccc12)c1nc2ccccc2[nH]1 | inconclusive: 22.4 µM [inhibitor, single point]
CN1CCN(c2nc(-c3ccccc3)ncc2S(=O)(=O)c2ccccc2)CC1 | inactive
COc1cc(/C=N/NC(=O)CC23CC4CC(CC(C4)C2)C3)cc(Br)c1OCC(=O)N(C)C | inconclusive: 14.1 µM [inhibitor, single point]
Cc1cc(N2CCCC2=O)cc(C)c1CN1C(=O)c2ccccc2C1=O | inconclusive: 5.62 µM [inhibitor, single point]
OCCCNc1nc(-c2ccc(Cl)cc2)nnc1-c1ccc(Br)cc1 | inconclusive: 11.2 µM [inhibitor, single point]
C=C1C(=O)OC2C1CCC(C)C1(O)C=CC(=O)C21C (stereo not drawn) | active: 8.91 µM
Cc1ccc(C(C)C)c(OCc2nn(CC(=O)c3ccc(OC(F)F)cc3)c3[n+]2CCCCC3)c1 | inconclusive: 20 µM [inhibitor, single point]
